Data: patent US20190263890A1 (CSL BEHRING LENGNAU, published 2019)

What was measured:
[1] = target: T1, rVIII-SingleChain (recombinant single-chain Factor VIII) (Homo sapiens (Human), UniProt P00451 20-2351); test: SPR (Biacore T200), D′D3-FP captured on anti-albumin antibody, rVIII-SingleChain as analyte, single cycle kinetics, 25 °C; D′D3-FP dimer preparation (not monomer)
T1 construct: also called FVIII; rFVIII
T1 sequence: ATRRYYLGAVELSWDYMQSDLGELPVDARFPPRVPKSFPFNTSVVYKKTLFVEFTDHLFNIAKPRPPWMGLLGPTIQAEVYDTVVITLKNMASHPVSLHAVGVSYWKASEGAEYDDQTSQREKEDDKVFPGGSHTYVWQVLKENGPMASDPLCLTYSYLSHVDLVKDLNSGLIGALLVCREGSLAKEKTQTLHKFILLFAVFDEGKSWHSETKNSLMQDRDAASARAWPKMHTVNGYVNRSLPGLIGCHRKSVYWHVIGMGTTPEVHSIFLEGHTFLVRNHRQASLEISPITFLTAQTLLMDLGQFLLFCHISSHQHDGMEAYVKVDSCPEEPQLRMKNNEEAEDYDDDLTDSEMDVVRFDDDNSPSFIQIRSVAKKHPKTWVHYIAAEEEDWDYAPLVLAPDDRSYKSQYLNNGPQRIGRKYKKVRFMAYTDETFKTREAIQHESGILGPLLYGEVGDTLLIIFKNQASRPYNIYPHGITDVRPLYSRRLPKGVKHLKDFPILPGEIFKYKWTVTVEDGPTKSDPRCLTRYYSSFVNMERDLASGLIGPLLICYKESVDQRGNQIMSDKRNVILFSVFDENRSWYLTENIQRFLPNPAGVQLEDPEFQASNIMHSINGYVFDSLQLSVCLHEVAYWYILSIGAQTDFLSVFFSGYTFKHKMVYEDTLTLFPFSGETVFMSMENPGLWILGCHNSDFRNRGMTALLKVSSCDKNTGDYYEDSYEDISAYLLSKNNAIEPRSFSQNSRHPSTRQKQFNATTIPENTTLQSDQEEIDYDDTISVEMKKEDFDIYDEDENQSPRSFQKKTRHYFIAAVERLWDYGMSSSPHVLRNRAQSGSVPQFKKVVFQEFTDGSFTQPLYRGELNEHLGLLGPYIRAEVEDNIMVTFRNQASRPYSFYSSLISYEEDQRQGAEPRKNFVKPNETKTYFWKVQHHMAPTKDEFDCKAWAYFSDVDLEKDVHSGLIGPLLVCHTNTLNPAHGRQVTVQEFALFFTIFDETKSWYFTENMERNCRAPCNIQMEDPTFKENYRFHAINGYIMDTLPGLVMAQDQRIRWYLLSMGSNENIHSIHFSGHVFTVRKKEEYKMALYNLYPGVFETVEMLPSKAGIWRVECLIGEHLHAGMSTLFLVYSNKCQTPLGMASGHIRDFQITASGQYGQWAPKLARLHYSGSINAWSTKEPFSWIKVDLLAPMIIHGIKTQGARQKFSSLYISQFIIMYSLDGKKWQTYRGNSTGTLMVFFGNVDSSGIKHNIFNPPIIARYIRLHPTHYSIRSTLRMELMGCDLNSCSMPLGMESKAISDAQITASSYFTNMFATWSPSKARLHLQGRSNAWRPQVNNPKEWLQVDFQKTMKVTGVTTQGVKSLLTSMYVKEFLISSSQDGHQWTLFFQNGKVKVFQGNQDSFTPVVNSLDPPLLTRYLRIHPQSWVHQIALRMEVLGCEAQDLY
Procedure: (§1) A VWF fragment (1-1242) albumin fusion (D′D3-FP) was expressed in a bioreactor; after purification as described above and isolation of monomer and dimer, the affinity of FVIII to these preparations was assessed through surface plasmon resonance via a Biacore instrument (T200, GE Healthcare).
(§2) Dimeric and monomeric D′D3-FP proteins, respectively, were immobilized to the covalently coupled anti-albumin antibody by a flow of the D′D3-FP proteins (5 μg/mL) over the chip for 3 min (flow rate of 10 μL/min).
(§3) To create binding curves for FVIII, each D′D3-FP protein preparation was diluted in running buffer (HBS-P+: 0.1 M HEPES, 1.5 M NaCl and 0.5% v/v Surfactant P20, pH 7.4; product code BR100671, GE Healthcare) to concentrations of 0.25 nM, 0.5 nM, 1 nM, 3 nM and 4 nM. By performing a single cycle kinetic, samples with ascending concentrations of each dilution were flown over the chip for 2 min (flow rate 30 μL/min.), followed by a dissociation time of 10 min. with running buffer HBS-P+. All measurements were performed twice. The temperature for the measuring procedure was adjusted to +25° C.

[2] = target: T1, rVIII-SingleChain (recombinant …); test: SPR (Biacore T200), D′D3-FP captured on anti-albumin antibody, rVIII-SingleChain as analyte, single cycle kinetics, 25 °C; D′D3-FP monomer preparation (not dimer)
Procedure: as §1, §2, §3

- Kd [1]: 0.034 nM
B1: D′D3-FP Dimer (dimeric VWF D′D3 albumin fusion protein) (other)
chain: SLSCRPPMVKLVCPADNLRAEGLECTKTCQNYDLECMSMGCVSGCLCPPGMVRHENRCVALERCPCFHQGKEYAPGETVKIGCNTCVCRDRKWNCTDHVCDATCSTIGMAHYLTFDGLKYLFPGECQYVLVQDYCGSNPGTFRILVGNKGCSHPSVKCKKRVTILVEGGEIELFDGEVNVKRPMKDETHFEVVESGRYIILLLGKALSVVWDRHLSISVVLKQTYQEKVCGLCGNFDGIQNNDLTSSNLQVEEDPVDFGNSWKVSSQCADTRKVPLDSSPATCHNNIMKQTMVDSSCRILTSDVFQDCNKLVDPEPYLDVCIYDTCSCESIGDCACFCDTIAAYAHVCAQHGKVVTWRTATLCPQSCEERNLRENGYECEWRYNSCAPACQVTCQHPEPLACPVQCVEGCHAHCPPGKILDELLQTCVDPEDCPVCEVAGRRFASGKKVTLNPSDPEHCQICHCDVVNLTCEACQEPGGSSGGSGGSGGSGGSGGSGGSGGSGGSGGSGS[about 600 residues not listed]
notes: Expressed from VWF aa 1-1242 plus linker plus albumin; The dimer fraction was isolated by size exclusion chromatography; The monomers are disulfide-linked within the truncated VWF part; In the SPR assay it was captured on an anti-albumin antibody; also called dimeric D′D3-FP; rD′D3-FP

- Kd [2]: 30 nM
B2: D′D3-FP Monomer (monomeric VWF D′D3 albumin fusion protein) (other)
chain: SLSCRPPMVKLVCPADNLRAEGLECTKTCQNYDLECMSMGCVSGCLCPPGMVRHENRCVALERCPCFHQGKEYAPGETVKIGCNTCVCRDRKWNCTDHVCDATCSTIGMAHYLTFDGLKYLFPGECQYVLVQDYCGSNPGTFRILVGNKGCSHPSVKCKKRVTILVEGGEIELFDGEVNVKRPMKDETHFEVVESGRYIILLLGKALSVVWDRHLSISVVLKQTYQEKVCGLCGNFDGIQNNDLTSSNLQVEEDPVDFGNSWKVSSQCADTRKVPLDSSPATCHNNIMKQTMVDSSCRILTSDVFQDCNKLVDPEPYLDVCIYDTCSCESIGDCACFCDTIAAYAHVCAQHGKVVTWRTATLCPQSCEERNLRENGYECEWRYNSCAPACQVTCQHPEPLACPVQCVEGCHAHCPPGKILDELLQTCVDPEDCPVCEVAGRRFASGKKVTLNPSDPEHCQICHCDVVNLTCEACQEPGGSSGGSGGSGGSGGSGGSGGSGGSGGSGGSGS[about 600 residues not listed]
notes: The monomer fraction was isolated by size exclusion chromatography; In the SPR assay it was captured on an anti-albumin antibody; also called monomeric D′D3-FP

Each block holds one binder with its values, some of them ahead of it.
